This passage reports self-cleavage results from the RNAGym collection of RNA variant scans (doi:10.7554/elife.90254).

Sequences and labels used below:
B1: LINE1-mini (parent)
chain: GGCAGAGCUCAACACAGCGUGGCAAAGUGGCUGUGGCUAGACUGCC

Read counts are not given, so values of variants with three or more changes are uncertain.

Variants of B1 are the subject of this data set. Description: self-cleavage, relative activity (ratio to wild type); higher = more cleavage; in vitro, sequencing; the parent is a self-cleaving ribozyme.
As to C13A A14U G17A G33U U38A A39U, the self-cleavage turned out to be 0.04. In the case of A12U G21U G35A C46A, the self-cleavage was 0.12. Take A12U G17U G35A: the self-cleavage is 0.01. For A12U A16C G17A G30A U34C C42A, the self-cleavage was determined as 0.04. On to A12U C18G C23A A41U C46U, for which the self-cleavage was 0.03. A12U U28C G33A C42G: the self-cleavage was 0.02. C13A C18U G40A G44A: the self-cleavage was found to be 0.03. For the variant C13A A14G C15U C31G G33A, the self-cleavage turned out to be 0.02. Take A12U C13A C18A C31A: the self-cleavage stood at 0.01. Under C13A A14U A16U U28A stands 0.1; under A12U A26C G35U, 0.08; under C13A C18A G21U, 0.09. Under A12U C37U G44C stands 0.02; under A12U G30U C42U, 0.03; under C13A C37U G40C C45U, 0.13.

For the variant A12U A16C U34G U43G, the self-cleavage amounted to 0. Under A12U G21C U38G C42U stands 0.02; under C13A A25U A39U C46A, 0.06; under A12U G30A U38A G44A, 0.07. Take A12U C13G G29U A39U A41G: the self-cleavage came out at 0.06. Under A12U C13A A14C U34G A41U stands 0.07; under A12U C31G C46U, 0.03; under C13A A24G G29A, 0.19. As for A12U C18A G29A, the self-cleavage amounted to 0.06. Under A12U A14U U32A stands 0; under A12U G17U G40U, 0.06. Under A12U C18U C31U U43C C45G stands 0.02; under A12U A16G G22U G30C, 0.23. A12U C13G C46U: the self-cleavage is 0.18. Under C13A A16C C18A U34A stands 0.02; under C13A C18U G21U G27C A41C, 0.01; under C13A C18G C23A C45U, 0.11. With C13A C18G U28G G29C C31U U38C, the self-cleavage was 0.01. Consider C13A A24C C37U, for which the self-cleavage came to 0.05. Turning to C13A C23U U34C, the self-cleavage came out at 0.05. On to C13A A14G G21A U34A, for which the self-cleavage is 0.05.

Consider A12U G19U A26U G33C, for which the self-cleavage was determined as 0.02.

C13A A26U U28A G29U: the self-cleavage worked out at 0.03. Turning to C13A A16U C31U C37A C46U, the self-cleavage is 0.06. With A12U C13A A16C G22U G35U C37U, the self-cleavage came out at 0.05. On to A12U A14G G22C C37A, for which the self-cleavage stood at 0.02. A12U C18G A39U G44A: the self-cleavage came out at 0. With A12G U28C A39C, the self-cleavage is 0.01. Regarding C13A A26U G36C U43G, the self-cleavage worked out at 0.02. On to C13A C15G G17C U38G, for which the self-cleavage was determined as 0.02. Under C13A A25G C46G stands 0.01; under A12G U34A A39U, 0; under A12U G22U C31A U34C, 0.04. Consider C13A C18U U38A, for which the self-cleavage was 0.03. On to A12U A25G A26U G36U, for which the self-cleavage stood at 0.01.

A12U C15U G35A: the self-cleavage is 0.19. With A12U A14U C15A, the self-cleavage stood at 0.01. For C13A C31U U43C, the self-cleavage worked out at 0.09. With C13A C15G U28C A41G C45U, the self-cleavage was 0.01. For C13A C15G G35C A39U C42A G44U, the self-cleavage came out at 0.54.

For the variant A12U U32C G40A, the self-cleavage was determined as 0.12.

As for A12U U20C U38A C46A, the self-cleavage came out at 0.13.

For C13A A14U G21U, the self-cleavage stood at 0.01. In the case of C13A A14C G21U U34A, the self-cleavage is 0.06. Take C13A A14C G36C U43G: the self-cleavage was determined as 0. On to A12U G22U A24U, for which the self-cleavage was determined as 0.84. As to A12U G29A U38G, the self-cleavage was 0.02.

For the variant A12U G22C G29C, the self-cleavage came out at 0.21. For the variant C13A A24U C31G A41G, the self-cleavage amounted to 0.04. Turning to A12U G22A G29U C42U, the self-cleavage stood at 0.1. On to A12G U32A C42A, for which the self-cleavage worked out at 0.15. On to A12U A16G C31U G40C, for which the self-cleavage was 0.02. With A12U C15A A16U C31U A39C C45U C46G, the self-cleavage came out at 0.01.

In the case of C13A C18U G29U, the self-cleavage was 0.16. For A12U G19U A39C, the self-cleavage amounted to 0.16. For the variant C13A C23A A26C, the self-cleavage is 0.21.

C13A C23A G36U: the self-cleavage was 0.7.

Consider A12U G29U C46A, for which the self-cleavage worked out at 0.06. Under A12U G21C A26U C45U stands 0.14; under A12U C18G C23G, 0.03; under A12U C13U G19A A25C, 0.07. Take C13A C42A C45A: the self-cleavage is 0.06. With A12U G33A C37U, the self-cleavage is 0. Under A12U C15G U20G G35C G36C A41U stands 0; under C13A A14G G19C G30C, 0.11; under C13A C18U G21C G33C C37A, 0.05. Consider A12U C18A U20A A24C A39U, for which the self-cleavage came out at 0.07. As for A12U U20C U38A G40C C46G, the self-cleavage was determined as 0. For A12U G36U C37G, the self-cleavage turned out to be 0. With C13A A16U G29A, the self-cleavage stood at 0.07. Take C13A A25C U32A: the self-cleavage was 0.13. With C13A C23A C45U, the self-cleavage is 0.08. As to C13A C42A G44A, the self-cleavage came out at 0.07. C13A C18A A25U C31A G44U: the self-cleavage is 0. A12U C13A C18A G22U: the self-cleavage stood at 0.05. Under A12U C23G A39U C42G stands 0.01. As to A12U G29U G40U, the self-cleavage was 0.14.

Take A12U G21C A41G: the self-cleavage amounted to 0.06.

As to C13A A16C G22C G40U C46U, the self-cleavage amounted to 0.06. For C13A A16U G21C, the self-cleavage came out at 0.06.

For A12U A24U U32G, the self-cleavage came to 0.01. In the case of C13A A24C A26U U28C G35C, the self-cleavage worked out at 0.08.

As to A12U G29C G35U U38G, the self-cleavage was found to be 0.01. As to A12U A24G C31U, the self-cleavage was 0.07. A12U A16U C42A: the self-cleavage was found to be 0.19.

Take A12U C18G U20C U28A A41G C46U: the self-cleavage came to 0.04. As for A12U A16U C18A G35C, the self-cleavage turned out to be 0.02. For the variant A12U A16U G17U C23A A26G U28G G40C, the self-cleavage came to 0. As to C13A A14C U28G G36C, the self-cleavage came to 0.01. On to A12U C37U U38G C42G, for which the self-cleavage was 0. Take C13A A14C G19A G21U C23A: the self-cleavage came out at 0.02.

As for C13A A14U A41C, the self-cleavage amounted to 0.07. For A12U C15G C23U C37G, the self-cleavage is 0.

Take C13A C31U U34G: the self-cleavage was found to be 0.03. Under A12U A26G G44U stands 0.01.

For A12U C13G A39G A41U, the self-cleavage came out at 0.04. Consider A12U G29U C31G U38C G44A, for which the self-cleavage was 0.02. On to C13A C15A U32C, for which the self-cleavage was 0.

In the case of A12U A24G A39G, the self-cleavage is 0.03. For the variant A12U A24G A39C, the self-cleavage came to 0.12. Take C13A C18U G30C G35C G36U: the self-cleavage was found to be 0.01.

Take A12U C15G C23A U28G U32G C37U U38A: the self-cleavage was 0.01. Under A12U G22C U32C U34G G36U stands 0.02. Regarding A12U A16G A24U, the self-cleavage was 0.06. Consider A12U U20A U28A C42G, for which the self-cleavage amounted to 0. For the variant C13A C37G A39C, the self-cleavage worked out at 0.03.

Take A12U C15G A16C G36A: the self-cleavage worked out at 0.02.

As to C13A A16C G27A U32C G36C, the self-cleavage amounted to 0.05. On to A12U G30C C42U, for which the self-cleavage is 0.13. With A12U C13U G27A, the self-cleavage was found to be 0.11. Turning to A12U A14C G19U U28G G44C, the self-cleavage was found to be 0. As for C13A A39C C42G, the self-cleavage was 0.03. Under C13A A39C C42U stands 0.48; under A12U G27C G35C U38G, 0.02.

Regarding C13A A26G U28G G30A, the self-cleavage came out at 0.02. With C13A C23A A25U, the self-cleavage was determined as 0.03.

On to A12U G21C A25U U43C, for which the self-cleavage is 0.03.

As for A12U A16U U20A G27A U28C U38C A39G G44C, the self-cleavage is 0.03. Under A12U C18U A41U C46A stands 0.17; under A12U G22A G27A U38G, 0; under C13A C18A A26G G30U U34G G44U, 0. Regarding A12U A14C U20A G30C C46G, the self-cleavage is 0.01. As for A12U U20C G22A U28G, the self-cleavage worked out at 0.08.

As to A12U U32A G33U G44A, the self-cleavage was 0.03. A12U C37A A41C C42G: the self-cleavage stood at 0.02.

As for C13A A24G G40U C46A, the self-cleavage turned out to be 0.

For the variant A12U C13G G22A, the self-cleavage amounted to 0.19. Regarding C13A A16U G19A G21C C45A C46G, the self-cleavage is 0.02. Turning to A12U C23U G29C A39G, the self-cleavage came to 0.01. As to A12U A14U A25U U38A, the self-cleavage stood at 0.12. For A12U G19A U38G, the self-cleavage stood at 0.03. Under C13A A16U G44C stands 0.04; under A12U G22C C37A, 0.02; under C13A C18G U32A U43C, 0.1. In the case of A12U A25G U32A, the self-cleavage amounted to 0.02. Under C13A A16U G17C U28G U43C C45A stands 0.02; under C13A C23U A26G, 0.13; under A12U C23A G29U G35C A41G C42G, 0.01. As to A12U U28G G30U C45U, the self-cleavage came to 0.07. Take A12U G19A C42A: the self-cleavage was found to be 0.11.

Consider A12U A26U G29U, for which the self-cleavage turned out to be 0.48. With C13A A14C C37G, the self-cleavage stood at 0.03. With A12U C13U G29U G30C, the self-cleavage was 0.01. With A12U G17U C23G G44U, the self-cleavage stood at 0.02. In the case of A12U G33U C46U, the self-cleavage amounted to 0.03. Regarding A12U C23U G29A G30C A41U, the self-cleavage came to 0.2.

Turning to C13A A25U G27C G40U, the self-cleavage amounted to 0.1. Consider A12U G29C G33A U38G, for which the self-cleavage was 0. On to A12U G17A G27A G35C C46A, for which the self-cleavage came out at 0.01. As for C13A C18A G21A G40C, the self-cleavage was 0.02. A12U G22C A41G: the self-cleavage came out at 0.02. Under C13A A26G C31G C42A stands 0.01.
